Experimental findings from publication PMC4336329 (PLoS ONE, 2015) are described below.

Out of some 310,000 compounds screened, about 2,200 (0.71%) showed an effect of 50% or more. Effects have a minus sign here. This is one part of the list.

The target of the assay is human ether-à-go-go-related gene (hERG) potassium channel (human, UniProt Q12809). The assay can be described thus: primary screen, population patch clamp on CHO cells stably expressing hERG.
human ether-à-go-go-related gene (hERG) potassium channel, sequence (Q12809 whole entry, looked up): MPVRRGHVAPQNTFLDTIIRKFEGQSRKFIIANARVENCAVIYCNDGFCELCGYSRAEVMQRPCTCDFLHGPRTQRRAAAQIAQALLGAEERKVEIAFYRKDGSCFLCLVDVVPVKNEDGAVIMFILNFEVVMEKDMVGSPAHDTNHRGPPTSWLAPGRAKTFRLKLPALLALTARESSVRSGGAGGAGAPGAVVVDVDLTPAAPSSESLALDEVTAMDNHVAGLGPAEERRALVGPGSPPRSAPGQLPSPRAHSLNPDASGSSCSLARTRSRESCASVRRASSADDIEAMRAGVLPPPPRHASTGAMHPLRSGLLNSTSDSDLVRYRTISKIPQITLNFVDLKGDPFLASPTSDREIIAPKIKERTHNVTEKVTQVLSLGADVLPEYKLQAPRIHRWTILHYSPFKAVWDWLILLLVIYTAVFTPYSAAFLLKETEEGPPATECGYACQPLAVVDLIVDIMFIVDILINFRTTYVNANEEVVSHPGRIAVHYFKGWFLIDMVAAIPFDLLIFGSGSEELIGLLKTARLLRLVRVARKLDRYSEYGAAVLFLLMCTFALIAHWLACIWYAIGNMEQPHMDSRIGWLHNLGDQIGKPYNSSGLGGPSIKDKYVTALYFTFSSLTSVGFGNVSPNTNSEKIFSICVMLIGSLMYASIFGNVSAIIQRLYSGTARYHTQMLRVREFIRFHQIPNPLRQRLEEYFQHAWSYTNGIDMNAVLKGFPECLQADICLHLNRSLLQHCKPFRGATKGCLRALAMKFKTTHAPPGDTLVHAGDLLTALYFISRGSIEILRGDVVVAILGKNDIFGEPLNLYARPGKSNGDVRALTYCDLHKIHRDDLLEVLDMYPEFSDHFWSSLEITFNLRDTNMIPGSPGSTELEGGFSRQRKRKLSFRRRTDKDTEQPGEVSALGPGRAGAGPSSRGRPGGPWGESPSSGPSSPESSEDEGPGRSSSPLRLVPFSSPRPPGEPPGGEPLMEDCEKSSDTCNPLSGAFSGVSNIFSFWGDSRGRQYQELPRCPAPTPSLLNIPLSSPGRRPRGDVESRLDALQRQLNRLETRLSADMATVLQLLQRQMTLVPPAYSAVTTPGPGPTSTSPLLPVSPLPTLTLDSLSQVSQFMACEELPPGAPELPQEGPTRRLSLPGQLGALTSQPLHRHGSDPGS
Consider `CC(C)c1ccc(N2C=Nc3ccc(C(C)C)cc3C2)cc1`, for which the “hERG current change (%, negative = inhibition) at 1uM” value amounted to 6.82%.

In the case of `Cc1onc(-c2ccccc2)c1-c1nnc(CN2CCN(S(=O)(=O)c3ccccc3F)CC2)o1`, the “hERG current change (%, negative = inhibition) at 1uM” value was -6.2%.

For the compound `CCC(C)(C)C1CCc2[nH]nc(C(=O)NCc3ccc(OC)cc3)c2C1` (stereo not shown), the “hERG current change (%, negative = inhibition) at 1uM” value is reported as 14.6%.

As for `COc1cccc(/C=N/N2C(=O)NC3(CCCCC3)C2=O)c1O`, the “hERG current change (%, negative = inhibition) at 1uM” value came to 6.48%.

Consider `COc1cccc(CNCc2ccc(OC)c3ccccc23)c1OC.O=C(O)C(=O)O`, for which the “hERG current change (%, negative = inhibition) at 1uM” value is listed as 17.4%.

Consider `CCOC(=O)Cc1csc(NC(=O)c2cccc([N+](=O)[O-])c2)n1`, for which the “hERG current change (%, negative = inhibition) at 1uM” value was 10.2%.

With `N/C(=N\c1nc2c(c(=O)[nH]1)CCC2)Nc1cccc2ccccc12`, the “hERG current change (%, negative = inhibition) at 1uM” value was -2.55%.

As for `O=C(C1CCC(=O)N(C2CCCC2)C1)N1CCN(Cc2cccc(Cl)c2)CC1` (stereo not shown), the “hERG current change (%, negative = inhibition) at 1uM” value stood at 8.65%.

As to `Cc1ccc(Cn2nc(C)c(NC(=O)CCCn3nc(C)c([N+](=O)[O-])c3C)c2C)cc1`, the “hERG current change (%, negative = inhibition) at 1uM” value is 9.56%.

For `O=C(N/N=C/c1sc(=O)n(Cc2ccc(Br)cc2)c1Cl)c1ccco1`, the “hERG current change (%, negative = inhibition) at 1uM” value is on record as 11%.

On to `COc1ccccc1CNC(=O)CCN1C(=O)COc2ccccc21`, for which the “hERG current change (%, negative = inhibition) at 1uM” value stood at 10.4%.

On to `COc1ccc(NC(=O)C(C)Sc2nnc(C3CC3)n2C2CC2)cc1` (stereo not shown), for which the “hERG current change (%, negative = inhibition) at 1uM” value worked out at 3.89%.

Take `Cc1ccc(S(=O)(=O)N(C)C)cc1NC(=O)COc1cccc(-n2cnnn2)c1`: the “hERG current change (%, negative = inhibition) at 1uM” value amounted to 4.34%.

For `O=C(CN1C(=O)COc2ccc(S(=O)(=O)N3CCCCCC3)cc21)NCc1ccc(F)cc1`, the “hERG current change (%, negative = inhibition) at 1uM” value came out at 6.22%.

Take `Cc1ccc(N(CC(=O)NCCc2ccccc2)S(=O)(=O)c2c(C)noc2C)cc1`: the “hERG current change (%, negative = inhibition) at 1uM” value is recorded as -2.67%.

Regarding `CCN(CC)S(=O)(=O)c1ccc(C(=O)NC(=S)N(CCO)Cc2ccccc2)cc1`, the “hERG current change (%, negative = inhibition) at 1uM” value was determined as 13.1%.

As for `CCCc1[nH]nc2c1C(c1ccc(OCCN3CCOCC3)c(OC)c1)C(C#N)=C(N)O2` (stereo not shown), the “hERG current change (%, negative = inhibition) at 1uM” value stood at 4.01%.

As for `CC(=O)c1c(C)c(C)c2n1CCn1c(C)ccc1-2`, the “hERG current change (%, negative = inhibition) at 1uM” value worked out at 14.4%.

On to `COc1ccc(-c2nnc(SCC(=O)NC(=O)Cc3ccccc3)n2C)cc1`, for which the “hERG current change (%, negative = inhibition) at 1uM” value was determined as 3.32%.

`COc1cc(CN2CCNC(=O)C2CC(=O)NCCC2=CCCCC2)cc(OC)c1` (stereo not shown): the “hERG current change (%, negative = inhibition) at 1uM” value worked out at 12.8%.

For `COc1cc([N+](=O)[O-])ccc1NC(=O)Nc1cnccn1`, the “hERG current change (%, negative = inhibition) at 1uM” value is recorded as -0.389%.

Regarding `O=C1COc2ccc(-c3csc(=Nc4ccc(OC(F)F)cc4)n3CC3CCCO3)cc2N1` (stereo not shown), the “hERG current change (%, negative = inhibition) at 1uM” value is listed as -0.709%.

Regarding `COC(=O)c1cc(C(=O)OCC(=O)Nc2ccccc2OC(F)F)cc([N+](=O)[O-])c1`, the “hERG current change (%, negative = inhibition) at 1uM” value is listed as 3.43%.

As for `COc1ccc(-n2cnc3c(cnn3CCC#N)c2=N)cc1`, the “hERG current change (%, negative = inhibition) at 1uM” value is on record as -3.21%.

Regarding `Cc1cccc(C(=O)NCCN2CCN(c3ccccc3)CC2)c1.Cl`, the “hERG current change (%, negative = inhibition) at 1uM” value is -12.7%.

On to `O=C(N/N=C/c1ccc([N+](=O)[O-])cc1)c1ccc(NS(=O)(=O)c2cccs2)cc1`, for which the “hERG current change (%, negative = inhibition) at 1uM” value amounted to 4.81%.

As to `O=[N+]([O-])c1cc(C(F)(F)F)cc([N+](=O)[O-])c1NCCNC(=S)Nc1cccc(F)c1`, the “hERG current change (%, negative = inhibition) at 1uM” value worked out at 6.4%.

On to `COc1ccccc1/C=C(/C(=O)OCC(=O)Nc1ccccc1C(C)C)c1ccccc1`, for which the “hERG current change (%, negative = inhibition) at 1uM” value was determined as 10.7%.

For the compound `CCC/C(=N\NC(=O)c1ccc(CSc2nncn2C)cc1)c1ccccc1`, the “hERG current change (%, negative = inhibition) at 1uM” value turned out to be 7.72%.

As to `CC(=O)N(C)C(c1ccc(N(C)C)cc1)c1nnnn1-c1c(C)cccc1C` (stereo not shown), the “hERG current change (%, negative = inhibition) at 1uM” value is given as 4.13%.

With `COc1cc(CCC(=O)N2CCN(c3cccc(C)c3C)CC2)cc(OC)c1OC`, the “hERG current change (%, negative = inhibition) at 1uM” value is on record as 12.1%.

Regarding `Cc1cccc(NC(=O)Nc2ccc(Cl)c(Cl)c2)n1`, the “hERG current change (%, negative = inhibition) at 1uM” value is -0.04%.

Consider `C#CCOCCOCCOCCNc1nc(N2CCN(C(=O)C(Cc3ccc(O)cc3)n3cc(C(N)CC(C)C)nn3)CC2)nc(N2CCN(C(=O)C(Cc3cc4ccccc4[nH]3)n3cc(C(N)Cc4ccc(O)cc4)nn3)CC2)n1.Cl` (stereo not shown), for which the “hERG current change (%, negative = inhibition) at 1uM” value was determined as 2.94%.

As for `COc1ccc(Nc2nc(N)nc(SCc3nnc(C)s3)n2)cc1`, the “hERG current change (%, negative = inhibition) at 1uM” value was 8.54%.

Regarding `Cc1cc(N2CCOCC2)nc2ccc(NC(=S)NC(C)C)cc12`, the “hERG current change (%, negative = inhibition) at 1uM” value stood at 2.36%.

In the case of `COc1ccc(NC(=O)c2ccc3c(c2)OCO3)cc1Cl`, the “hERG current change (%, negative = inhibition) at 1uM” value worked out at 9.69%.

Regarding `CN(CC(=O)Nc1ccccc1Sc1ccccc1)C1CCCCC1`, the “hERG current change (%, negative = inhibition) at 1uM” value came out at 8.53%.

On to `CCOCCCNC(=O)CCSc1ccc(C)cc1`, for which the “hERG current change (%, negative = inhibition) at 1uM” value was determined as 0.816%.

For the compound `COc1ccc(CN(C(=O)c2cc(=O)c3ccccc3o2)C2CCS(=O)(=O)C2)cc1` (stereo not shown), the “hERG current change (%, negative = inhibition) at 1uM” value is listed as 3.8%.

For `O=C(/C=C/c1ccc(F)cc1)Nc1ccc(S(=O)(=O)Nc2ncccn2)cc1`, the “hERG current change (%, negative = inhibition) at 1uM” value amounted to 12.9%.

Regarding `O=C(N/N=C/c1cccnc1)c1ccccc1`, the “hERG current change (%, negative = inhibition) at 1uM” value came out at 14.5%.

Turning to `CC1(C)C(=O)Nc2ccccc2N1C(=O)CN1C(=O)C(=O)N(C2CCCC2)C1=O`, the “hERG current change (%, negative = inhibition) at 1uM” value came to 0.681%.

On to `CNc1ccccc(-c2ccc3ccccc3n2)c1=O`, for which the “hERG current change (%, negative = inhibition) at 1uM” value was found to be 3.23%.

On to `N#C/C(=C/c1cn(-c2ccccc2)nc1-c1cccc(S(=O)(=O)N2CCCC2)c1)C(=O)NCc1ccco1`, for which the “hERG current change (%, negative = inhibition) at 1uM” value was determined as 9.99%.

On to `COc1ccc(/C=C/C(=O)OCC(=O)Nc2ccc(N3CCOCC3)cc2)cc1OC`, for which the “hERG current change (%, negative = inhibition) at 1uM” value is listed as 11.7%.

As for `O=C(N/N=C/c1cccn1-c1ccc([N+](=O)[O-])cc1)c1cccnc1`, the “hERG current change (%, negative = inhibition) at 1uM” value is recorded as 2.29%.

Regarding `COc1ccc(C(=O)COC(=O)c2ccc(OC)c(OC)c2)cc1OC`, the “hERG current change (%, negative = inhibition) at 1uM” value is 3.77%.

As to `COc1ccc(CNC(=O)c2cc(-c3ccncc3)nc3c(C)cc(C)cc23)cc1OC`, the “hERG current change (%, negative = inhibition) at 1uM” value was found to be 11%.

For the compound `S=C(NCc1ccc2[nH]c3c(c2c1)CCCC3)Nc1ccccc1`, the “hERG current change (%, negative = inhibition) at 1uM” value came out at 12.3%.

On to `CCOC(=O)Cn1nc(Cc2ccccc2)c2ccccc2c1=O`, for which the “hERG current change (%, negative = inhibition) at 1uM” value was found to be 9.37%.

In the case of `O=C(Oc1ccc(N(C(=O)c2ccncc2)S(=O)(=O)c2ccc(F)cc2)cc1)c1ccncc1`, the “hERG current change (%, negative = inhibition) at 1uM” value amounted to 9.57%.

Take `COc1cc2cc(C(=O)N3CCN(Cc4ccc5c(c4)OCO5)CC3)[nH]c2cc1OC`: the “hERG current change (%, negative = inhibition) at 1uM” value turned out to be 12%.
